From the supplement of paper PMC12217912
Some of the results follow. Sequences were assembled here from the parent chain. Inactive controls read about 0.05.

B1: TEV protease; numbered along this chain (parent)
chain: MGESLFKGPRDYNPISSSICHLTNESDGHTTSLYGIGFGPFIITNKHLFRRNNGTLVVQSLHGVFKVKDTTTLQQHLVDGRDMIIIRMPKDFPPFPQKLKFREPQREERICLVTTNFQTKSMSSMVSDTSCTFPSGDGIFWKHWIQTKDGQCGSPLVSTRDGFIVGIHSASNFTNTNNYFTSVPKNFMELLTNQEAQQWVSGWRLNADSVLWGGHKVFMVKPEEPFQPVKEATQL

Variants of: B1
Assay: raw area under fraction-flipped curve 0-4 h after induction (AUC4h, not background-subtracted), DNA-recorder readout of cleavage of the substrate (dimensionless); higher = more cleavage of the substrate by the protease variant
Conditions: temperature: 34 °C; time window: 0-4 h after rhamnose induction
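Note: Bxb1 expression induced with 0.2% (w/v) L-rhamnose at OD600 near 0.5, cultures sampled hourly, flipped fraction per protease–substrate barcode pair counted by paired-end Illumina sequencing.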

Row | Variant | area with substrate EALYFQS | area with substrate EELYFQS | area with substrate EFLYFQS | area with substrate EGLYFQS | area with substrate EILYFQS | area with substrate EKLYFQS | area with substrate EMLYFQS | area with substrate EPLYFQS | area with substrate EQLYFQS | area with substrate ERLYFQS | area with substrate ESLYFQS | area with substrate ETLYFQS | area with substrate EVLYFQS | area with substrate EWLYFQS | area with substrate EYLYFQS | area with substrate ECLYFQS | area with substrate ELLYFQS | area with substrate EHLYFQS | area with substrate EDLYFQS
1 | Q198L | 0.127 | 0.13 | 0.0938 | 0.0867 | 0.0838 | 0.1 | 0.104 | 0.103 | 0.138 | 0.0957 | 0.0804 | 0.0887 | 0.102 | 0.0829 | 0.0843 | – | – | – | –
2 | Q198N | 0.109 | 0.113 | – | – | 0.103 | – | 0.0963 | 0.105 | – | 0.134 | 0.0983 | – | – | – | – | 0.101 | 0.0904 | – | –
3 | Q198T | 0.114 | 0.147 | – | – | 0.0877 | 0.0866 | – | 0.131 | 0.146 | 0.101 | 0.101 | 0.132 | 0.0495 | 0.097 | – | 0.0981 | 0.0828 | 0.116 | –
4 | W199F | 0.103 | 0.116 | – | – | – | – | – | – | 0.0751 | – | 0.0761 | – | 0.0875 | 0.0737 | – | 0.0708 | 0.0959 | – | –
5 | W199P | 0.0859 | 0.0545 | – | – | 0.0765 | – | – | – | – | 0.0552 | – | 0.0854 | 0.0648 | 0.0613 | – | – | 0.0658 | 0.0724 | 0.0776
6 | S201G | 0.0772 | 0.0711 | 0.0666 | 0.0596 | 0.0604 | 0.0221 | – | – | 0.0665 | – | 0.07 | – | – | 0.0614 | – | 0.062 | 0.0617 | – | –
7 | G202R | 0.0698 | 0.0923 | – | – | – | 0.0703 | 0.0558 | 0.0558 | – | 0.0722 | – | – | 0.0645 | – | 0.0671 | 0.0721 | – | – | –
8 | W203V | 0.072 | 0.064 | – | 0.0595 | 0.0627 | 0.0751 | 0.0638 | – | 0.0746 | 0.049 | 0.0779 | – | 0.0771 | – | – | 0.0813 | – | 0.0674 | –
9 | R204G | 0.0864 | 0.116 | – | 0.0854 | 0.0759 | 0.0647 | 0.091 | 0.0812 | 0.0974 | – | 0.087 | 0.11 | 0.0913 | 0.0665 | 0.0986 | 0.116 | 0.0966 | 0.125 | –
10 | R204M | 0.139 | 0.13 | 0.104 | 0.123 | 0.0909 | 0.109 | 0.13 | 0.105 | 0.148 | 0.13 | 0.0992 | – | 0.0951 | – | 0.123 | 0.112 | 0.0961 | 0.124 | –
11 | R204V | 0.134 | 0.144 | 0.121 | 0.113 | 0.102 | 0.0862 | 0.101 | 0.105 | 0.115 | 0.101 | 0.143 | – | 0.128 | – | 0.142 | 0.119 | 0.126 | 0.14 | –
12 | L205H | 0.0803 | – | 0.0673 | 0.0375 | 0.0757 | 0.0758 | 0.0717 | – | 0.0704 | 0.0657 | – | – | 0.0735 | – | – | – | – | – | –
13 | A207K | 0.151 | 0.118 | – | – | – | – | 0.124 | 0.129 | 0.102 | – | – | – | – | – | 0.137 | 0.0899 | – | – | –
14 | A207T | 0.108 | – | – | 0.13 | 0.0937 | 0.138 | 0.13 | 0.129 | 0.0472 | 0.0918 | 0.111 | 0.132 | 0.0998 | 0.0968 | 0.115 | – | 0.0876 | 0.102 | 0.153
15 | S209D | 0.142 | 0.123 | – | – | 0.115 | – | 0.128 | – | 0.144 | 0.117 | 0.138 | 0.097 | – | – | – | 0.119 | – | – | –
16 | V210N | 0.0825 | 0.0962 | 0.0782 | 0.0682 | 0.0373 | 0.0752 | 0.0743 | 0.0755 | 0.0831 | 0.0573 | 0.0927 | – | 0.0935 | 0.0765 | 0.0865 | 0.0891 | 0.0619 | 0.102 | –
17 | L211M | 0.0596 | 0.0895 | – | – | 0.0904 | 0.121 | 0.0955 | 0.139 | 0.0766 | – | 0.12 | – | 0.107 | 0.0806 | 0.123 | 0.0819 | 0.0954 | 0.126 | –
18 | W212G | 0.0716 | 0.0795 | – | 0.0633 | – | 0.0556 | – | 0.0775 | 0.064 | 0.0751 | 0.073 | – | 0.0389 | – | – | 0.0718 | 0.0492 | 0.0764 | –
19 | G213R | 0.0574 | 0.0615 | 0.0681 | – | 0.0565 | 0.0686 | – | 0.058 | 0.0681 | 0.0601 | 0.0639 | 0.0861 | 0.0727 | 0.0652 | 0.047 | 0.0561 | 0.0594 | 0.0635 | –
20 | G214D | 0.0722 | – | – | 0.0617 | – | 0.0902 | 0.0955 | – | – | 0.0814 | 0.0778 | 0.0471 | 0.0706 | – | – | – | 0.0729 | – | 0.0897
21 | F218N | 0.0967 | – | – | – | 0.0781 | 0.0309 | 0.0993 | 0.114 | – | 0.0581 | – | – | 0.0713 | – | – | – | – | – | 0.134
22 | M219T | 0.0928 | 0.116 | 0.0749 | – | 0.0709 | 0.0704 | 0.152 | – | – | 0.108 | – | – | 0.113 | 0.0883 | – | 0.125 | 0.107 | – | –
23 | M219W | 0.0892 | 0.11 | – | 0.105 | 0.1 | 0.114 | – | 0.0418 | 0.125 | 0.0899 | 0.107 | – | 0.0871 | 0.0741 | 0.093 | 0.102 | 0.0921 | 0.0878 | –
24 | V220E | 0.0721 | – | – | – | 0.0942 | 0.125 | 0.113 | 0.125 | – | 0.0653 | 0.104 | – | 0.0911 | 0.124 | 0.102 | 0.0972 | 0.107 | – | –
25 | V220G | 0.12 | 0.131 | 0.115 | – | – | 0.113 | 0.125 | 0.134 | 0.12 | 0.102 | 0.121 | 0.141 | 0.112 | – | – | 0.142 | 0.0876 | 0.102 | –
26 | K221L | 0.0982 | – | – | 0.0708 | 0.092 | 0.0799 | 0.107 | 0.151 | 0.106 | 0.0958 | – | – | 0.0905 | 0.103 | 0.1 | – | 0.109 | 0.0959 | 0.118
27 | K221S | 0.0988 | – | – | 0.0648 | – | 0.0884 | 0.102 | 0.0646 | – | 0.0825 | 0.0962 | 0.142 | 0.0697 | – | 0.0584 | – | 0.0805 | – | –
28 | P222A | 0.0879 | – | – | 0.0468 | 0.0636 | – | – | 0.131 | – | – | 0.103 | – | 0.0961 | – | 0.102 | – | – | – | 0.142
